In publication PMC9911399, “Two distinct binding modes provide the RNA-binding protein RbFox with extraordinary sequence specificity”:
Numbering of substitutions follows the chain as printed; changes in the protein carry UniProt numbers. The list shows a part of the results.

T1: RBFOX1 RRM (Homo sapiens, UniProt Q9NWB1 109-208)
T1 sequence: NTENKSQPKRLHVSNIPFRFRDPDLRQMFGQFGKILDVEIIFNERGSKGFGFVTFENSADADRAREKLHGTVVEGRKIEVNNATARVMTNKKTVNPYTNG

B1: GAGGUAG (DNA:RNA)
RNA: GGGAGACCGGAAUUCAGAUUGUCCGAGGUAGUUAAAUCCCGUCGUAGCCACCA
DNA 1: CAATCTGAATTCCGGTCTCCC
DNA 2: TGGTGGCTACGACGGGATT
B2: UGCGGUC (DNA:RNA)
RNA: B1 RNA with G25U, A26G, G27C, U29G, A30U, G31C
DNA 1: CAATCTGAATTCCGGTCTCCC
DNA 2: TGGTGGCTACGACGGGATT
B3: AUACUGU (DNA:RNA)
RNA: B1 RNA with G25A, A26U, G27A, G28C, A30G, G31U
DNA 1: CAATCTGAATTCCGGTCTCCC
DNA 2: TGGTGGCTACGACGGGATT
B4: GUGAUCC (DNA:RNA)
RNA: B1 RNA with A26U, G28A, A30C, G31C
DNA 1: CAATCTGAATTCCGGTCTCCC
DNA 2: TGGTGGCTACGACGGGATT
B5: UCGAACC (DNA:RNA)
RNA: B1 RNA with G25U, A26C, G28A, U29A, A30C, G31C
DNA 1: CAATCTGAATTCCGGTCTCCC
DNA 2: TGGTGGCTACGACGGGATT
B6: GUCAGCU (DNA:RNA)
RNA: B1 RNA with A26U, G27C, G28A, U29G, A30C, G31U
DNA 1: CAATCTGAATTCCGGTCTCCC
DNA 2: TGGTGGCTACGACGGGATT
B7: GACAGAU (DNA:RNA)
RNA: B1 RNA with G27C, G28A, U29G, G31U
DNA 1: CAATCTGAATTCCGGTCTCCC
DNA 2: TGGTGGCTACGACGGGATT
B8: UAAAUUG (DNA:RNA)
RNA: B1 RNA with G25U, G27A, G28A, A30U
DNA 1: CAATCTGAATTCCGGTCTCCC
DNA 2: TGGTGGCTACGACGGGATT
B9: UUGCCCG (DNA:RNA)
RNA: B1 RNA with G25U, A26U, G28C, U29C, A30C
DNA 1: CAATCTGAATTCCGGTCTCCC
DNA 2: TGGTGGCTACGACGGGATT
B10: AUAGCGA (DNA:RNA)
RNA: B1 RNA with G25A, A26U, G27A, U29C, A30G, G31A
DNA 1: CAATCTGAATTCCGGTCTCCC
DNA 2: TGGTGGCTACGACGGGATT
B11: CGACCAG (DNA:RNA)
RNA: B1 RNA with G25C, A26G, G27A, G28C, U29C
DNA 1: CAATCTGAATTCCGGTCTCCC
DNA 2: TGGTGGCTACGACGGGATT
B12: UAUGUGA (DNA:RNA)
RNA: B1 RNA with G25U, G27U, A30G, G31A
DNA 1: CAATCTGAATTCCGGTCTCCC
DNA 2: TGGTGGCTACGACGGGATT
B13: UUGCAUC (DNA:RNA)
RNA: B1 RNA with G25U, A26U, G28C, U29A, A30U, G31C
DNA 1: CAATCTGAATTCCGGTCTCCC
DNA 2: TGGTGGCTACGACGGGATT
B14: AAUCGCU (DNA:RNA)
RNA: B1 RNA with G25A, G27U, G28C, U29G, A30C, G31U
DNA 1: CAATCTGAATTCCGGTCTCCC
DNA 2: TGGTGGCTACGACGGGATT
B15: CACCAGG (DNA:RNA)
RNA: B1 RNA with G25C, G27C, G28C, U29A, A30G
DNA 1: CAATCTGAATTCCGGTCTCCC
DNA 2: TGGTGGCTACGACGGGATT
B16: GUGUUAA (DNA:RNA)
RNA: B1 RNA with A26U, G28U, G31A
DNA 1: CAATCTGAATTCCGGTCTCCC
DNA 2: TGGTGGCTACGACGGGATT
B17: GCACUAU (DNA:RNA)
RNA: B1 RNA with A26C, G27A, G28C, G31U
DNA 1: CAATCTGAATTCCGGTCTCCC
DNA 2: TGGTGGCTACGACGGGATT
B18: CUGAAUU (DNA:RNA)
RNA: B1 RNA with G25C, A26U, G28A, U29A, A30U, G31U
DNA 1: CAATCTGAATTCCGGTCTCCC
DNA 2: TGGTGGCTACGACGGGATT
B19: UUCAGCG (DNA:RNA)
RNA: B1 RNA with G25U, A26U, G27C, G28A, U29G, A30C
DNA 1: CAATCTGAATTCCGGTCTCCC
DNA 2: TGGTGGCTACGACGGGATT
B20: GAGGCAA (DNA:RNA)
RNA: B1 RNA with U29C, G31A
DNA 1: CAATCTGAATTCCGGTCTCCC
DNA 2: TGGTGGCTACGACGGGATT

target: T1, RBFOX1 RRM; assay: EMSA; HiTS-Eq, 1 nM pool, 10 min; buffer printed only for the single-RNA assays: 10 mM Tris pH 7.5, 150 mM NaCl, 3.4 mM EDTA, 0.001% NP-40, 30 C; conditions: tags: His6 N-terminal (pET28a); label: 5' 32P
Summary of the method: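 These values rest on relative association constants, computed from read-count changes of each RNA species versus the control reaction and normalised to the cognate motif. Reads came from free RNA recovered by 8% native PAGE after purified RbFox RRM (wild type or mutant) at increasing concentrations was equilibrated for 10 min in 50 µL with 1 nM of a 5′-radiolabelled pool with 7 randomized nucleotides and DNA-annealed flanks.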

Row | Binder | binding signal
1 | B1 | 0.0154 KA relative to UGCAUGU
2 | B2 | 0.0174 KA relative to UGCAUGU
3 | B3 | 0.0026 KA relative to UGCAUGU
4 | B4 | 0.0187 KA relative to UGCAUGU
5 | B5 | 0.00388 KA relative to UGCAUGU
6 | B6 | 0.0081 KA relative to UGCAUGU
7 | B7 | 0.0102 KA relative to UGCAUGU
8 | B8 | 0.0132 KA relative to UGCAUGU
9 | B9 | 0.0225 KA relative to UGCAUGU
10 | B10 | 0.00503 KA relative to UGCAUGU
11 | B11 | 0.00738 KA relative to UGCAUGU
12 | B12 | 0.0133 KA relative to UGCAUGU
13 | B13 | 0.022 KA relative to UGCAUGU
14 | B14 | 0.00687 KA relative to UGCAUGU
15 | B15 | 0.00535 KA relative to UGCAUGU
16 | B16 | 0.00646 KA relative to UGCAUGU
17 | B17 | 0.00458 KA relative to UGCAUGU
18 | B18 | 0.00817 KA relative to UGCAUGU
19 | B19 | 0.0121 KA relative to UGCAUGU
20 | B20 | 0.0155 KA relative to UGCAUGU
